The record followed here is the supplement of paper PMC11417369.

Some of the results follow.

The experiment has as its system PfHDP1 homeodomain (GST-tagged). Put plainly: gcPBM binding intensity (ln(normalized median fluorescence intensity)); higher = stronger DNA binding. Put shortly:
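For binding intensity, the highest Masliner-normalised natural-log median intensity across replicate spots of either probe orientation was taken. Protein bound to the array was stained with Alexa488 anti-GST antibody and scanned at 488 nm. The protein, GST-tagged P. falciparum DNA-binding domains from E. coli at about 25 μg on average, had been applied for 1 h to an Agilent 4 × 180k array of primer-extended double-stranded 36-bp intergenic genomic probes and negative controls.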
For the sequence “ATGTAGAGTAATAGTTGTACAAGGTGTATATCTCAT [XGTACX_site6370]”, the “gcPBM binding intensity (ln)” value came out at 7.33.

Turning to “AAAAAAAAAAACTTTGCATGTAATAATAAAAAAAAA [TGCATGCA_site81]”, the “gcPBM binding intensity (ln)” value was 6.43. For “AGAAGAAAACAAAACACACACATATATCTTAATATA [CACACA_site2231]”, the “gcPBM binding intensity (ln)” value came out at 6.73. As for “TGGTGAAAAATATAAATATAAATAAATATATATATA [CACACA_negctrl_site1725]”, the “gcPBM binding intensity (ln)” value worked out at 8.51. With ATGTTAATTAATGAGGTGCATTGAATATTTCAATAA, the “gcPBM binding intensity (ln)” value came to 8.32.

On to “TGTATTATCTCTTATGAACACACATTTTTATTTTCA [CACACA_site9107]”, for which the “gcPBM binding intensity (ln)” value stood at 6.65. With “ATACCTAAAAAATATACACACATATATATAAATATA [CACACA_site2580]” the figure was 6.49; with “CATCAATGCTAATTATGTACTTACATAAATAACCCT [XGTACX_site968]”, 6.52; with “AATTAAATGTTTCTAAGATATACGACCAATGTATTT [CACACA_negctrl_site1694]”, 6.04. On to “AATTAATGGGTACATACACACATATATACATACATA [CACACA_site742]”, for which the “gcPBM binding intensity (ln)” value came to 6.43.

Turning to “ATAAATAAATAAAAGCGTACATATATATAAAATATA [XGTACX_site8107]”, the “gcPBM binding intensity (ln)” value amounted to 6.31. As for “TATCACCCACCATGAAGTACATATTACCATTTGATG [XGTACX_site845]”, the “gcPBM binding intensity (ln)” value is 6.58. As for “AAAAGGAAGATATATACACACATACAAATATTTATA [CACACA_site7093]”, the “gcPBM binding intensity (ln)” value is 6.71. For the sequence “TTATACTAAATGAACACACACACATATATATATATA [CACACA_site99]”, the “gcPBM binding intensity (ln)” value was found to be 9.27. “ATATTAATGATATATACACACATAAGTATTGTATAT [CACACA_site7844]”: the “gcPBM binding intensity (ln)” value worked out at 6.4.

As to “AAATGTAATTTGTCTTTTATTTATATTTGACATGAT [TGCATGCA_negctrl_site520]”, the “gcPBM binding intensity (ln)” value was 6.08. For “TTTTTTTTTTTTTTTTTTTTTTTGCTCAGTGTGGTA [CACACA_negctrl_site29]”, the “gcPBM binding intensity (ln)” value was 6.88. With “AAAAATTATAAAAAACAAATATTAAATAATTATTAA [GTGCAC_negctrl_site125]” the figure was 6.15.

Consider “TTGATGGGAAAAAACTTTTTTTTCTTTTTTTCTTTC [CACACA_negctrl_site328]”, for which the “gcPBM binding intensity (ln)” value was 5.65. As for “AGAGTTAAACGATATATATAAATATATATATATATA [GTGCAC_negctrl_site316]”, the “gcPBM binding intensity (ln)” value came out at 9.03. With “AAAAAAAAAAACGACAGTACAATTATAATTTATATT [XGTACX_site2365]”, the “gcPBM binding intensity (ln)” value amounted to 6.33. For “ATGTCTTAAAAATTAAAACACACGTTCACTTTCATA [CACACA_site3385]”, the “gcPBM binding intensity (ln)” value is 6.46.

For the sequence “AGATCATAATATTATACACACATTAGATATAGGTAA [CACACA_site6809]”, the “gcPBM binding intensity (ln)” value is 6.76. With “ACTCTTTTAACGCAAAGTACTTTTTAAAATATTTCG [XGTACX_site7534]” the figure was 7.23; with “AACATACGAATATTCACACATAAATATATAAATCGC [CACACA_site4672]”, 6.47. Then “ATTTCTATTTGGGTTAGTACATATAAGTCTATTTTC [XGTACX_site3234]”, with 6.6; and “TATATAATCGAGTGCACACACAAAAAAAAAGTGAAC [CACACA_site1483]”, with 10.4. Then “TTTTTTTTTTCTTTTTGTACATATTCATAACAAGTA [XGTACX_site2784]”, with 6.34; and “TATTATATATATATCACACATATATTCATGTACATA [CACACA_site5432]”, with 6.72; and “AATACGTTATTATTTTGTACATATAAATAATAAGTT [XGTACX_site815]”, with 6.29.

Regarding “AAAAAAGACCATGTTAGTACATAAGATTTTTTTCAT [XGTACX_site4298]”, the “gcPBM binding intensity (ln)” value was found to be 5.89. For the sequence “ATATATAATATTTATTGTACTATTTTATTTTTATAA [XGTACX_site705]”, the “gcPBM binding intensity (ln)” value is 6.36. Then “TTTGACATACCTCTTGCATGTGAAAAACTTTTCGCT [TGCATGCA_site364]”, with 6.31; and “TTCTAGAAAACTGATCGTACAAATAAATATAGACAC [XGTACX_site2808]”, with 6.72; and “ATATATTATAATGATACACACAAGAAATAAAATTAC [CACACA_site3095]”, with 6.82. As to “TATAAAATAAAAGTAAATATATATATATATATATAT [TGCATGCA_negctrl_site208]”, the “gcPBM binding intensity (ln)” value amounted to 9.3.

Take “AAAATAGGGATCACGTGTACATATAAAGTGACATAC [XGTACX_site8190]”: the “gcPBM binding intensity (ln)” value was 7.04. “AATGCATACACATATTGTACTAAGCCATACAACACA [XGTACX_site305]”: the “gcPBM binding intensity (ln)” value was 6.75. In the case of “TATATATATAAATACACACACACCGTCCGTGTTAAA [CACACA_site5623]”, the “gcPBM binding intensity (ln)” value is 7.45. With “ATATATATTATATAGTGTACCTATGTATAATAATAT [XGTACX_site1683]”, the “gcPBM binding intensity (ln)” value is 6.53.

Regarding “ATATATATATATATATGTACACATATTATAAAAAAA [XGTACX_site8644]”, the “gcPBM binding intensity (ln)” value came out at 9.18. With “TATGTAGGTAAAAATTGTACTTTTTTTTTAATATTT [XGTACX_site2303]” the figure was 6.08; with “TGAATAAATATAAAAGGTACACATATAAATATATAT [XGTACX_site6349]”, 6.38.

As for “TGACATAATGTGTGTAGTACATATATCGTTATTTGA [XGTACX_site5152]”, the “gcPBM binding intensity (ln)” value amounted to 6.33.

In the case of “TAACTCTATTTTTTTGCATGCTGAAGCTATGAGTTT [TGCATGCA_site821]”, the “gcPBM binding intensity (ln)” value worked out at 6.77. Then “CACAAAAATAGACACACACACATATAAATAAATATA [CACACA_site6598]”, with 6.68; and “ATAATATTATGTGTGAATATATCTTTAAAAAGGATA [GTGCAC_negctrl_site15]”, with 6.33; and “TATATATTTCATAATACACACGAAAAAAAAAAAAAA [CACACA_site8972]”, with 6.58.

With “ATAAAAATAAAATAAGGTACAGACGAAAAAATTGAA [XGTACX_site5097]”, the “gcPBM binding intensity (ln)” value was determined as 6.78.

With “TATATATCTATAAACACACACCAAAATTTGTGCTTT [CACACA_site7448]”, the “gcPBM binding intensity (ln)” value is 6.65.

On to “ATATACTTTAAAGGTTAAGAAAGAAAAAAAAAAAAA [CACACA_negctrl_site956]”, for which the “gcPBM binding intensity (ln)” value turned out to be 6.32. “ATATATATATATTATATGCACACGTTAAAATTTCAT [CACACA_site709]”: the “gcPBM binding intensity (ln)” value amounted to 10.4.

Consider “AAATAAAAAGAAAAGAAAAAGAAAATAAAAAGAGAA [XGTACX_negctrl_site14]”, for which the “gcPBM binding intensity (ln)” value was 6.31. Then “ATAAAATGAACAAACACACACACATATATTTATATA [CACACA_site7181]”, with 6.77; and “GTATTACATGAGGACACACACAAAAAAAATATATAT [CACACA_site769]”, with 7.06; and “TTATTATAAAAATGTAGTACAATACTTTTTTTTTTT [XGTACX_site732]”, with 5.98.

Regarding “TAATTATTTTAAAAAGTGCATTAAAAGATATTAAAT [GTGCAC_site9694]”, the “gcPBM binding intensity (ln)” value was 7.88. In the case of “GAATAAATAAGATACGTACACACATATACAAAATAT [CACACA_site3660]”, the “gcPBM binding intensity (ln)” value is 6.7. In the case of “AAAAATAAATTTATATATTACAAGAACAAATATAGT [XGTACX_negctrl_site567]”, the “gcPBM binding intensity (ln)” value is 6.77. On to “TTTTTTTAAAAAAAGGGTACATATATATATTTTTCT [XGTACX_site1066]”, for which the “gcPBM binding intensity (ln)” value amounted to 6.41.

For the sequence “ATAATATAAACGTATACACACAAGAGAAGCATAAAG [CACACA_site2889]”, the “gcPBM binding intensity (ln)” value was 7.37. Then “AAAAGGAAAGGAAAGGGTACAATCCTATTATATTAT [XGTACX_site8652]”, with 6.16; and “CTTATACATATATATAGTACATATATCATTTTTATG [XGTACX_site4462]”, with 6.84. With “AATTTTCTTAAAATTTGTACGTATATATTTAATATA [XGTACX_site3906]” the figure was 6.46; with “GTCATATATAATTGTTGTACATTTTTATAATTATGT [XGTACX_site8091]”, 6.68; with “AATATAAATGTGATTACACACAACACATTTAAATGT [CACACA_site1212]”, 6.47. With “AAAAAATTATATTATGCACACATCGTTATATATATA [CACACA_site1201]”, the “gcPBM binding intensity (ln)” value stood at 10.2. Take “TATATATACTATAACACACATACACCCAAAAAAAAA [CACACA_site536]”: the “gcPBM binding intensity (ln)” value was determined as 7.07. Then “ATATGTATCTCATCGTGTACATGTATATAATATATA [XGTACX_site4139]”, with 6.73. Consider “TTAGAAAAATTATATATACACACTTATATTTATATA [CACACA_site2821]”, for which the “gcPBM binding intensity (ln)” value was 6.2. Then “ATATATCAAAATAATTGTACAAATTTTATATAATTT [XGTACX_site7249]”, with 6.43. With “ATATAGTAAAGTTATACACACATGAATTTTCCCATG [CACACA_site6923]” the figure was 6.64; with “TAAACAGACATATAAACACACATACATACATACATA [CACACA_site7215]”, 6.65; with “TTTCATGACAATGTTTGTACATAATAAAATATATTT [XGTACX_site7039]”, 6.42. “TTAAAAAGATGTCACTGTACATAAAACATAAAATAT [XGTACX_site2886]”: the “gcPBM binding intensity (ln)” value amounted to 6.75. On to “GAAGAGACTTAGAAAACACACATACATAAGATAATT [CACACA_site5333]”, for which the “gcPBM binding intensity (ln)” value is 6.46. With “AAAAAAAAAAAAAAAACACACATAAAACTATAATAA [CACACA_site7758]” the figure was 6.62; with “TTTATATATATTCTCACACACTTTTTATTTTAACAA [CACACA_site4534]”, 6.68. As to “AAAAATATTTATAACACACACATAATATTTATATAT [CACACA_site7238]”, the “gcPBM binding intensity (ln)” value worked out at 6.78. With “ATAAATTTCCTCGTTTTTTTTTTTTTTTTTTTTTTT [CACACA_negctrl_site1173]” the figure was 6.95; with “CTATTTCAGAAACACACACACACAAACAAACATATA [CACACA_site978]”, 6.85; with “TATTTGAAAGCCAATTGTACTTTAGTTTTTGAAACA [XGTACX_site5542]”, 5.98. Turning to “CAAGAAATTTACAAACGTACATATGTTCATACAAGG [XGTACX_site2372]”, the “gcPBM binding intensity (ln)” value turned out to be 6.73.

Turning to “TTAGAGAAACAAAATTGTACATTATAAATTTGCCTT [XGTACX_site440]”, the “gcPBM binding intensity (ln)” value came to 6.02. TTTCTTTTTAAATAGGTGCATATTTTTATAAATATA: the “gcPBM binding intensity (ln)” value stood at 8.83. With “TTAAATATAATATTATGTACTAAATATTTTTTTATT [XGTACX_site6121]”, the “gcPBM binding intensity (ln)” value turned out to be 6.32. Take “ATATATTTACATATTACACACAATATTGTACACATA [CACACA_site6564]”: the “gcPBM binding intensity (ln)” value amounted to 7.11.

As to ATATATTTTTGTAGTGTGCACGTTTATATGGTGAAA, the “gcPBM binding intensity (ln)” value was determined as 8.78. Regarding “TATAAACATATCATATGTACATATATTTTTATAAAA [XGTACX_site8882]”, the “gcPBM binding intensity (ln)” value was found to be 6.29.
